# Measured values reported in PubChem BioAssay AID540317 (National Center for Advancing Translational Sciences (NCATS), 2011).
# In all, about 390,000 compounds went through this assay and about 2,200 (0.56%) were called active. Inconclusive means that the source gave no clear call. Such entries were picked first, then a sample of the others. Calls follow the shape of the dose curve; as a rule, active = well fitted inhibition curve with a large enough effect; inconclusive = small, poorly fitted or top-dose-only effect; inactive = no such curve, though single readings can be large or run the other way. Potencies of inconclusive entries are doubtful fits and often do not repeat.
# Biological target: Chromobox protein homolog 1 (Homo sapiens) (UniProt P83916)
# Chain of UniProt P83916 (P83916 whole entry, looked up): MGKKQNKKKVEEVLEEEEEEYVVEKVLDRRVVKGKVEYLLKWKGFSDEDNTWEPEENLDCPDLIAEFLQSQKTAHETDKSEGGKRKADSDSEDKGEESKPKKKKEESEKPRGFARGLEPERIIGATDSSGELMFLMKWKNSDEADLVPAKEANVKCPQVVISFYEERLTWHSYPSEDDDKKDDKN
# Test: HTS for Inhibitors of HP1-beta Chromodomain Interactions with Methylated Histone Tails; also: nearly all actives have a fitted effect of over 70% in size
# Details: AlphaScreen HP1-beta / biotin-H3K9me3 peptide binding; series mostly up to 114 µM
# Outline: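 Compound inhibition of the preformed complex between 50 nM HP1-beta and 50 nM biotinylated H3K9me3 peptide was read by AlphaScreen. Buffer was PBS pH 7.4 with 0.01% Tween-20. Incubations ran 30 min at room temperature, with 10 ug/mL donor/acceptor beads.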
# Potency is read from the fitted curve at half-maximal effect; tags tell the direction and shape of the fitted curve.
row,SMILES,Potency
1,CCCCN(CCCC)S(=O)(=O)c1ccc(SCC(=O)OCC)c([N+](=O)[O-])c1,active: 79.4 µM
2,CN(C)CCCNCCCNC(=O)c1ccccn1,inactive
3,CC(=O)Nc1ccc(-c2cn3c(n2)SCC3)cc1,"inconclusive: 89.1 µM [inhibitor, partial curve, poor fit]"
4,Cc1ccsc1/C=C1\SC(=S)N(CC2CCCO2)C1=O (stereo unspecified),active: 44.7 µM
5,CNc1oc(C)nc1S(=O)(=O)c1ccc(C)cc1,"inconclusive: 44.7 µM [inhibitor, partial curve]"
6,CN(C)CCC[C@@]1(c2ccc(F)cc2)OCc2cc(C#N)ccc21,"inconclusive: 5.01 µM [inhibitor, full curve]"
7,CCc1ccc(/C=C/C(=O)c2cc(Br)ccc(=O)c2O)cc1,"inconclusive: 20 µM [inhibitor, full curve]"
8,CCOc1ccc(C(=O)Nc2ccc(C(F)(F)F)n(C)c2=O)cc1,inactive
9,Cc1ccccc1OCC(=O)N/N=C/c1cc2ccccc2nc1Cl,"inconclusive: 39.8 µM [inhibitor, single point]"
10,CCn1c(O)c(/C=C2\C=Nc3ccccc32)sc1=Nc1ccccc1,inactive
11,CCC(CC)c1nnc(NC(=O)C2=NNC(=O)CC2)s1,inactive
12,CCOC(=O)c1ccc(NC(=O)C2=C(C)Nc3nc(SCc4ccc(Cl)cc4)nn3C2c2ccc(OC)cc2)cc1 (stereo unspecified),inactive
13,CC(=O)Nc1ccc(Nc2nc(C)c([N+](=O)[O-])c(N(C)c3ccccc3)n2)cc1,"inconclusive: 70.8 µM [inhibitor, partial curve]"
14,COc1ccc(-n2ncc3c2CC(C)(C)CC3NC(=O)CCCN2CCCC2=O)cc1 (stereo unspecified),inactive
15,CCc1c(C)sc(NC(=S)N2CCN(C(=O)C3CCCO3)CC2)c1C(=O)OC (stereo unspecified),"inconclusive: 70.8 µM [inhibitor, partial curve]"
16,CCOC(=O)c1cnc2c(OC)cccc2c1N1CCN(c2ccccc2F)CC1,"inconclusive: 56.2 µM [inhibitor, partial curve, poor fit]"
17,S=c1[nH]nc(COc2ccccc2)n1/N=C/C(Cl)=C/c1ccccc1,"inconclusive: 28.2 µM [inhibitor, partial curve, poor fit]"
18,CCOC(=O)c1sc(NC(=O)C2=COCCO2)c(C#N)c1C,"inconclusive: 28.2 µM [inhibitor, partial curve]"
19,CC(=Nc1ccc(O)cc1)c1sc2ccccc2c1O,inactive
20,COc1ccccc1CNc1ccc(N2CCCCC2)cc1,active: 31.6 µM
21,COc1cc2c(cc1OC)C(c1ccc(-c3ccc(Cl)c(Cl)c3)o1)=NCC2,"inconclusive: 15.8 µM [inhibitor, full curve, poor fit]"
